Measurements as given in the supplement of paper PMC4604168 (melanoma cell lines).
Some of the results follow. Repeats are few or missing, and single values can be far off.

Experiments:
Assay in all cases: cell count relative to DMSO control; melanoma cells; higher = more viable cells
Settings in all cases: library dose: standard library concentration; 72 h
[1] = test system: G361
[2] = test system: IPC-298
[3] = test system: IST-MEL1
[4] = test system: LB2518-MEL
[5] = test system: LOXIMVI
[6] = test system: MEL-HO
[7] = test system: MZ2-MEL
[8] = test system: MeWo
[9] = test system: RPMI7951
[10] = test system: RVH-421
[11] = test system: SkMel28
[12] = test system: SkMel2
[13] = test system: SkMel30
[14] = test system: SkMel5
[15] = test system: UACC257
[16] = test system: UACC62
[17] = test system: WM115
[18] = test system: WM1716
[19] = test system: WM1745
[20] = test system: WM3526
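Also: cells treated in 1,536-well plates, then fixed and DAPI-stained, with nuclei counted from automated high-throughput microscope images.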

Compound | cell count [1] | cell count [2] | cell count [3] | cell count [4] | cell count [5] | cell count [6] | cell count [7] | cell count [8] | cell count [9] | cell count [10] | cell count [11] | cell count [12] | cell count [13] | cell count [14] | cell count [15] | cell count [16] | cell count [17] | cell count [18] | cell count [19] | cell count [20]
CN(c1ncccc1CNc1nc(Nc2ccc3c(c2)CC(=O)N3)ncc1C(F)(F)F)S(C)(=O)=O + C[As](C)SC[C@H](NC(=O)CC[C@H](N)C(=O)O)C(=O)NCC(=O)O [Darinaparsin] (first compound 0.4 µM, partner dose 2 µM) | 74.2% | 85.8% | 79.9% | 78.3% | 101% | 81.5% | 79.4% | 88.1% | 91.7% | 71.9% | 59.5% | 86.7% | 99.5% | 53.2% | 69.5% | 55% | 77.2% | 83.6% | 66.9% | 92.2%
NC(=O)c1ccc(N(C(N)=O)c2c(F)cccc2F)nc1-c1ccc(F)cc1F + N.N.[Cl][Pt][Cl] [cisplatin] (first compound 2 µM, partner dose 8 µM) | 103% | 104% | 109% | 98.8% | 105% | 88.4% | 108% | 104% | 97.3% | 74.6% | 107% | 113% | 106% | 93.2% | 85.3% | 114% | 117% | 93.1% | 77.9% | 81.3%
O=S(=O)(c1ccccc1)N(CC(F)(F)F)c1ccc(C(O)(C(F)(F)F)C(F)(F)F)cc1 + O=C(Oc1ccc([N+](=O)[O-])cc1)N1CCC(C(O)(c2ccc3c(c2)OCO3)c2ccc3c(c2)OCO3)CC1 [JZL184] (first compound 7 µM, partner dose 5 µM) | 99.3% | 95.8% | 115% | 145% | 82.5% | 108% | 92.6% | 77.1% | 77.7% | 99.3% | 105% | 113% | 101% | 83.5% | 80.1% | 78.2% | 80.7% | 121% | 80.5% | 81.8%
COC(=O)c1sccc1S(=O)(=O)Nc1ccc(Nc2ccccc2)cc1OC + O=C(Oc1ccc([N+](=O)[O-])cc1)N1CCC(C(O)(c2ccc3c(c2)OCO3)c2ccc3c(c2)OCO3)CC1 [JZL184] (first compound 5 µM, partner dose 5 µM) | 101% | 91.4% | 102% | 113% | 102% | 103% | 89.4% | 75.4% | 85.1% | 105% | 90.1% | 100% | 64.9% | 78.3% | 89.8% | 101% | 86.2% | 88.2% | 101% | 81.9%
COc1cc([C@@H]2c3cc4c(cc3[C@@H](O[C@@H]3O[C@@H]5CO[C@@H](C)O[C@H]5[C@H](O)[C@H]3O)[C@H]3COC(=O)[C@H]23)OCO4)cc(OC)c1O [etoposide] + C[As](C)SC[C@H](NC(=O)CC[C@H](N)C(=O)O)C(=O)NCC(=O)O [Darinaparsin] (first compound 0.1 µM, partner dose 2 µM) | 71.1% | 70.4% | 103% | 76.4% | 104% | 89.2% | 80.5% | 72.3% | 99.1% | 93.8% | 92.4% | 84.5% | 79.8% | 62.2% | 81.9% | 58.2% | 75.5% | 57.3% | 94.9% | 85.7%
Cc1cc(SCc2sc(-c3ccc(C(F)(F)F)c(F)c3)nc2C)ccc1OCC(=O)O + O=C(Oc1ccc([N+](=O)[O-])cc1)N1CCC(C(O)(c2ccc3c(c2)OCO3)c2ccc3c(c2)OCO3)CC1 [JZL184] (first compound 10 µM, partner dose 5 µM) | 96.2% | 99.3% | 111% | 117% | 136% | 102% | 103% | 97.6% | 115% | 120% | 104% | 97.1% | 103% | 94.8% | 101% | 90.6% | 100% | 103% | 103% | 93.9%
COc1ccc(C2=N[C@@H](c3ccc(Cl)cc3)[C@@H](c3ccc(Cl)cc3)N2C(=O)N2CCNC(=O)C2)c(OC(C)C)c1 [Nutlin-3] + C[As](C)SC[C@H](NC(=O)CC[C@H](N)C(=O)O)C(=O)NCC(=O)O [Darinaparsin] (first compound 0.5 µM, partner dose 2 µM) | 60.9% | 102% | 100% | 60.3% | 59.8% | 102% | 123% | 80.6% | 84% | 66.5% | 58.4% | 126% | 71.1% | 37.2% | 75.7% | 62.3% | 57.8% | 60.4% | 100% | 82.1%
NC(=O)Nc1cc(-c2cccc(F)c2)sc1C(=O)N[C@H]1CCCNC1 + C/C(O)=C(\C#N)C(=O)Nc1cc(Br)ccc1Br [LFM-A13] (first compound 0.1 µM, partner dose 10 µM) | 90.8% | 86.2% | 89.5% | 79.7% | 192% | 79.5% | 92% | 70.6% | 40.8% | 278% | 40.8% | 89.4% | 71.1% | 91.2% | 102% | 59.8% | 79.2% | 70.5% | 47.4% | 62.1%
CC(C)(C)c1cnc(CSc2cnc(NC(=O)C3CCNCC3)s2)o1 + Cc1cc(SCc2sc(-c3ccc(C(F)(F)F)c(F)c3)nc2C)ccc1OCC(=O)O [GW0742] (first compound 0.05 µM, partner dose 10 µM) | 101% | 105% | 97.8% | 61.2% | 76.2% | 104% | 106% | 89.9% | 66.4% | 86.8% | 68.1% | 78.8% | 93.5% | 84.2% | 115% | 71.6% | 84.9% | 96.8% | 73.5% | 84.8%
Cn1cnc2c(F)c(Nc3ccc(Br)cc3Cl)c(C(=O)NOCCO)cc21 [selumetinib] + C[C@]12O[C@H](C[C@]1(O)CO)n1c3ccccc3c3c4c(c5c6ccccc6n2c5c31)CNC4=O [Lestaurtinib] (first compound 0.075 µM, partner dose 0.02 µM) | 47.6% | 53.5% | 100% | 37.4% | 91.2% | 68.5% | 60% | 70.9% | 131% | 67% | 46.9% | 27.3% | 42.4% | 58.9% | 111% | 50.2% | 66% | 74.2% | 61.4% | 40.8%
CC1(C)CCC(c2ccc(Cl)cc2)=C(CN2CCN(c3ccc(C(=O)NS(=O)(=O)c4ccc(N[C@H](CCN5CCOCC5)CSc5ccccc5)c(S(=O)(=O)C(F)(F)F)c4)cc3)CC2)C1 + C[As](C)SC[C@H](NC(=O)CC[C@H](N)C(=O)O)C(=O)NCC(=O)O [Darinaparsin] (first compound 2 µM, partner dose 2 µM) | 59.5% | 80.2% | 56.7% | 59.6% | 9.14% | 57.4% | 82.2% | 60.1% | 38.6% | 36.6% | 67.4% | 72.4% | 66.3% | 64.8% | 53.6% | 50.3% | 52% | 43% | 4.27% | 84.2%
Cn1c(=O)n(-c2ccc(C(C)(C)C#N)cc2)c2c3cc(-c4cnc5ccccc5c4)ccc3ncc21 + C[As](C)SC[C@H](NC(=O)CC[C@H](N)C(=O)O)C(=O)NCC(=O)O [Darinaparsin] (first compound 0.02 µM, partner dose 2 µM) | 38% | 72.4% | 72.7% | 67.2% | 56.9% | 75.9% | 81.5% | 72.7% | 65.8% | 72.2% | 29.7% | 67.7% | 76.9% | 45.4% | 142% | 94.5% | 58.9% | 44.4% | 85.6% | 62.3%
Cc1cc(SCc2sc(-c3ccc(C(F)(F)F)c(F)c3)nc2C)ccc1OCC(=O)O + Oc1cc(-c2nc(-c3ccccc3)[nH]c2-c2ccncc2)ccc1Cl [L779450] (first compound 10 µM, partner dose 1 µM) | 69.9% | 86.1% | 96.3% | 91% | 104% | 89% | 87.3% | 84.9% | 103% | 53% | 38.8% | 38.7% | 83% | 70% | 91.4% | 43.6% | 55.2% | 72.6% | 58.9% | 45.8%
NC(=O)c1ccc(N(C(N)=O)c2c(F)cccc2F)nc1-c1ccc(F)cc1F + C[C@]12O[C@H](C[C@]1(O)CO)n1c3ccccc3c3c4c(c5c6ccccc6n2c5c31)CNC4=O [Lestaurtinib] (first compound 2 µM, partner dose 0.02 µM) | 71.1% | 81.6% | 127% | 85.8% | 106% | 79% | 106% | 69.6% | 121% | 97.8% | 68.5% | 96.4% | 72% | 56.2% | 91.3% | 67.3% | 66.5% | 93.6% | 77.9% | 63.5%
CC1(C)CCC(c2ccc(Cl)cc2)=C(CN2CCN(c3ccc(C(=O)NS(=O)(=O)c4ccc(N[C@H](CCN5CCOCC5)CSc5ccccc5)c(S(=O)(=O)C(F)(F)F)c4)cc3)CC2)C1 + Cn1cc(C2=C(c3cn(C4CCN(Cc5ccccn5)CC4)c4ccccc34)C(=O)NC2=O)c2ccccc21 [Enzastaurin] (first compound 2 µM, partner dose 4 µM) | 35.4% | 67.4% | 21.5% | 17.7% | 44.5% | 42.4% | 69.7% | 78.1% | 11.4% | 6.89% | 10.8% | 16.4% | 74.1% | 89.3% | 33.4% | 72.6% | 92.1% | 32.7% | 13.6% | 77%
CNC(=O)c1cc(Oc2ccc(NC(=O)Nc3ccc(Cl)c(C(F)(F)F)c3)cc2)ccn1 [sorafenib] + C[As](C)SC[C@H](NC(=O)CC[C@H](N)C(=O)O)C(=O)NCC(=O)O [Darinaparsin] (first compound 2 µM, partner dose 2 µM) | 59.9% | 71.8% | 87.5% | 72.5% | 104% | 72.9% | 73.8% | 63.3% | 95.1% | 36.6% | 70% | 77.1% | 86.1% | 44.4% | 87.9% | 77.6% | 56.2% | 74% | 59.3% | 59.4%
C/C(O)=C(\C#N)C(=O)Nc1cc(Br)ccc1Br + Oc1nc(-c2ccc(C(F)(F)F)cc2)nc2c1CSCC2 [XAV939] (first compound 10 µM, partner dose 10 µM) | 101% | 98.7% | 97.4% | 113% | 301% | 88.4% | 85.5% | 111% | 91.7% | 324% | 97.7% | 107% | 83.8% | 119% | 87.4% | 101% | 118% | 86.7% | 94.7% | 133%
